Measurements published in patent publication US20210317204A1 (ALMAC DISCOVERY, published 2021).

B1: B1G1-hFc (Fc fusion, not shown: small tags and cut ends)
chain: TRVDQSPSSLSASVGDRVTITCVLTGANYGLASTYWYRKNPGSSNKEQISISGRYSESVNKGTKSFTLTISSLQPEDSATYYCRAYPWGAGAPWLVQWYDGAGTKVEIK[human IgG1 Fc with changes cut from this listing]
notes: construct not described beyond its name
B2: B1G2-hFc (Fc fusion, not shown: small tags and cut ends)
chain: TRVDQSPSSLSASVGDRVTITCVLTGANYGLASTYWYRKNPGSSNQERISISGRYSESVNKRTMSFTLTISSLQPEDSATYYCRAYPWGAGAPWLVQWYDGAGTKVEIK[human IgG1 Fc with changes cut from this listing]
notes: as for B1

Molecular target: T1, human ROR1 extracellular domain-Fc fusion (human, UniProt Q01973 part only)
T1 construct: extracellular domain; also called hROR1; ROR1-hFc
Test: SPR, hROR1 ECD-Fc on chip

Binder	Kd [nM]	koff [s⁻¹]	kon [M⁻¹ s⁻¹]
B1	11.8	0.00266	240000
B2	2.55	0.00141	626000
